Values quoted from earlier work, collected in US20110124589A1, “INHALED FOSFOMYCIN/TOBRAMYCIN FOR THE TREATMENT OF CHRONIC OBSTRUCTIVE PULMONARY DISEASE” (Gilead Sciences, Inc., priority 2009, published 2011).

Settings: aerosol administration; cited from earlier work

For `NC[C@H]1O[C@H](O[C@H]2[C@H](O)[C@@H](O[C@H]3O[C@H](CO)[C@@H](O)[C@H](N)[C@H]3O)[C@H](N)C[C@@H]2N)[C@H](N)C[C@@H]1O` [Tobramycin], the sputum levels is given as 1000 µg/mL.
